Results: patent US20090186900A1, “COMPOUND” (priority 2006, published 2009)
At least one read-out could not be matched to a standard name with certainty.

Target: T1, 17β-HSD1 (Homo sapiens, UniProt P14061)
T1 construct: Assay of 17β-hydroxysteroid Dehydrogenase Activity in T-47D Cells (E1→E2); endogenous in cells; host or cells: T-47D human breast cancer cells
T1 sequence (P14061 1-328): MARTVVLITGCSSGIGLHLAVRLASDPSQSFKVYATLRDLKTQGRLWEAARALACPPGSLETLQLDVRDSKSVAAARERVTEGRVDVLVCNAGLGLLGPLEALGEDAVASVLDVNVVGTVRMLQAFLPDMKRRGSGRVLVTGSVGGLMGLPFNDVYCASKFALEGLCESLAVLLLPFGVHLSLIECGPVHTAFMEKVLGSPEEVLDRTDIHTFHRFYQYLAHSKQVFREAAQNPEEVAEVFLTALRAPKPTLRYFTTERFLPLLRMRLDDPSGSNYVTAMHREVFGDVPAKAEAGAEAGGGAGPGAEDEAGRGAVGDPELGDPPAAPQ
Assay: 17β-HSD Type I assay in T-47D cells (E1→E2)
Format: cell-based
Conditions: T-47D human breast cancer cells, screened at 10 μM or 1 μM, sem typically ±5%

SMILES	Inhibition of 17β-HSD1
CC(=O)c1ccc(C(=O)Nc2ccc(O)cc2)cc1 [Compound 151, 4-Acetyl-N-(4-hydroxy-phenyl)-benzamide]	C (Compounds that were tested @ 10 μM and showed <80% inhibition and compounds that were tested @ 1 μM and showed <30% inhibition are designated C)
COc1ccc(N(C)C(=O)c2ccc(C(C)=O)cc2)cc1 [Compound 152, 4-Acetyl-N-(4-methoxy-phenyl)-N-methyl-benzamide]	C (Compounds that were tested @ 10 μM and showed <80% inhibition and compounds that were tested @ 1 μM and showed <30% inhibition are designated C)
CCc1cc(Oc2ccc(C(=O)CCC(=O)NCc3cccnc3)cc2C)ccc1OC [Compound 161, 4-(4-(3-Ethyl-4-methoxyphenoxy)-3-methylphenyl)-4-oxo-N-((pyridin-3-yl)methyl)butanamide]	C (Compounds that were tested @ 10 μM and showed <80% inhibition and compounds that were tested @ 1 μM and showed <30% inhibition are designated C)
CCOC(=O)COc1ccc(-c2ccc3c(c2)CCC3=O)cc1CC [Compound 162, [2-Ethyl-4-(1-oxo-indan-5-yl)-phenoxy]-acetic Acid Ethyl Ester]	C (Compounds that were tested @ 10 μM and showed <80% inhibition and compounds that were tested @ 1 μM and showed <30% inhibition are designated C)
